The list shows a part of the results. Values come from read counts of a selection and are noisy.
System: SARS-CoV-2 3CLpro (nsp5)
Assay: substrate phage enrichment score (protease-eluted vs HEPES control, +1 offset) (ratio); higher = better cleaved substrate
Conditions: selection round: 4; protease elution time: 15 min
Protocol: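 Random heptapeptide substrate phage display (M13 pIII fusion, heptapeptide between an N-terminal biotinylated AviTag GLNDIFEAQKIEWHE and pIII; phages immobilised on streptavidin) eluted by cleavage with 50 nM protease in 20 mM HEPES at 37 °C. Selected phages were NGS sequenced, and the enrichment score is (reads in protease sample + 1)/(reads in HEPES blank-selection control + 1).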

Substance	substrate phage enrichment score
ESSGPSI	1.31
CQRVTKP	3.04
CFLLRKS	> 32
KGLEHGK	1.25
GRLIFMG	> 50
CLKTPSA	> 21
STLPQVS	1.17
SSAIPRH	> 21
PHANCRQ	> 21
VLGRFVR	> 39
YGACQPT	2.56
FHTQLQC	> 80
LRLRLFR	11.3
CEVRTRT	1.2
RSETSTD	> 22
GRWPSPR	0.182
EESANAH	3.38
QNQYVTY	2.36
RAPAILQ	216
GPNTKLQ	> 167
QLNEAGH	> 100
CHSKVVT	0.571
TATAHHH	0.579

Substance	substrate phage enrichment score
KQGGDPQ	1.16
AGLSHLQ	> 52
TWSQSMS	> 21
WPTDVTN	3.22
QKRTPGN	0.16
PAYKSDR	> 21
HEKKDDG	0.381
PGGQRTS	3.6
RHLNSSD	5.57
VRCRLQA	> 659
NTTNNWR	> 22
TRSFGQP	0.381
DNNVQAA	0.6
ASTSGPN	13.3
GWFYSAR	> 37
TPSTTTL	> 37
TASRSSR	1.5
SAAAHHL	1.14
ATAVLQS	> 76
GSRCRTP	3.43
ENEPDSY	2.46
QYGYSEH	> 42
ERTRYSR	0.815

Substance	substrate phage enrichment score
CLTRCSY	0.632
QPSTILQ	> 21
QAGSLHR	1.56
GCTQAAG	1.15
HGAKLCP	2.6
TNSFHMN	3.6
PTKPCGP	> 23
HNIRTTD	0.0129
AIPVWQA	1.82
LFFQGGS	10
ECDTDQA	1.56
TGSAAAH	1.25
LSFQGGS	1.63
SQPSLLQ	11.5
TYLQSAT	> 36
APCRLGY	> 37
GHYENVG	12
ALMHSEP	10
CLRTILQ	> 22
ARNLQGP	3
GKLHSQG	0.619
LEHCLCS	1.07
ESAAAHH	0.68

Substance	substrate phage enrichment score
FQMKEYG	1.23
HVLYEPM	> 61
CSLYGSN	1.45
YSKYCRC	> 21
GQPKRDC	3.57
RAKSDAS	0.114
ATFGSDR	1.79
HLEYWRY	> 32
TTDSCVR	5.5
VELDGVR	12.5
CSYSQSR	2.7
KWQGSVI	> 32
THAHCGD	0.833
PYLKQGW	1.44
ANTCSPS	> 21
ASCKPIR	9.2
RAQPQHQ	8.67
CPRHNSN	2.73
RPGLQSA	11
LNAVDCR	3.4
TRSKVNG	> 24
RACREFR	1.4
EGPSEKT	1.4

Substance	substrate phage enrichment score
RQRCDLH	3.69
DRWMRDE	2.2
EPDMPMG	> 27
RTEPSGR	> 28
PAMPYVR	> 37
NNAAAHH	1.35
CLRGTAE	> 22
RHVEPNG	6.67
GEELSSK	1.82
VPPAELT	1.2
YCSSRSA	1.78
AQKQASE	3
YPSENAQ	1
EKYPCIG	> 21
SYQCHLN	1.27
PKWVCSE	5.71
HPYQLNE	> 23
DTAAAHH	0.324
EGKPYLQ	> 22
VAVRLQS	> 31
RTFSRLQ	> 94
KGSPTLQ	> 140
TQVSQLQ	> 23

Substance	substrate phage enrichment score
VRPHINI	0.712
SGLPTLQ	> 24
ATRSRLQ	> 211
RSDEDLT	10
MRPTKHT	8.25
TPAGSRR	3.17
PNEDGCR	1.6
QLPSTNR	> 35
YGQRRPE	0.146
SQDTWTG	1.88
DSIQLQS	11.5
CILQGGS	33
IGGSAAA	0.368
ISQARER	> 21
NAGFMTR	> 22
KCYCVLQ	> 32
SERKPPQ	1.33
SGRAIMQ	> 32
GSRLGNP	9.67
EQSTIRG	2.83
KTNSSER	> 25
ITAAHHH	0.977
PAQDCKR	> 26

Substance	substrate phage enrichment score
AHFLGPQ	> 25
AYHQPMT	0.714
PSGGARQ	1.69
APGASGQ	4
RLNHCGA	0.826
AAAPCVN	0.263
ARDSWAW	4
CEQLDVK	1.7
TRCRSDG	0.429
SETTILQ	> 30
GTSTQLH	> 56
CLSSQAR	2.83
LFLNRYQ	> 31
HLDGKDR	> 21
KAGLRQN	0.103
VNDCNPS	2.75
QPTVATQ	> 24
SLNQSGN	0.857
LLPGHPK	2.25
CPKTHLQ	> 22
LRNGARA	5.78
GSRVLCR	> 29
NYSFDLN	> 32

Substance	substrate phage enrichment score
FTAECAS	> 36
HCLLHAD	11
VGTSCNA	> 22
GTAGCWR	1.5
RMVCPET	1.47
QHNSESS	0.35
SSCNFRR	8.67
YQAAHHH	0.516
CFEGVLN	> 32
SSNCSLS	1.18
RPTSKSP	> 36
NRMPRSP	0.611
YSDCQCR	> 33
GCADNVR	> 24
VAAHHHH	0.65
DARWEIY	> 25
PVTQAIP	> 78
MDSRHGY	> 29
CSKLRTH	3.8
QCSYWVT	6.33
IGCNRRT	0.929
AKGPLGT	1.73
CMAAHHH	0.865

— the supplement of paper PMC10185492
